According to a compilation of properties of binary mixtures (doi:10.2298/jsc190413047v):
The densities may have been worked out from excess volumes.

Assay: xn = mol fraction of the nth substance listed
Details: 100 kPa

O=C1CCCO1 + CCCC[n+]1ccn(C)c1.O=S(=O)([N-]S(=O)(=O)C(F)(F)F)C(F)(F)F
mass density [kg/m3]
Details	293.15 K	298.15 K	303.15 K	308.15 K	313.15 K	318.15 K	323.15 K
x1 = 0.0523	1435.2	1430.2	1425.3	1420.5	1415.6	1410.6	1405.6
x1 = 0.0933	1431.7	–	1421.8	1417	–	1407.1	1402.1
x1 = 0.1974	1421.5	1416.5	1411.6	1406.8	1401.8	1396.9	–
x1 = 0.3036	1408.8	1403.9	–	1394.1	1389.1	1384.1	–
x1 = 0.4025	1394.3	1389.4	1384.4	1379.6	–	1369.6	1364.5
x1 = 0.4964	–	1372.4	1367.5	–	1357.6	1352.6	1347.5
x1 = 0.6003	1353.5	1348.6	–	1338.7	–	–	1323.6
x1 = 0.6489	1339.9	1335	1330	1325.1	1320.1	1315	1309.9
x1 = 0.7001	–	1318.4	1313.4	–	–	1298.4	1293.3
x1 = 0.7987	1282.7	1277.8	1272.8	1267.8	1262.8	1257.7	1252.6
x1 = 0.9046	1219.1	–	1209.2	1204.2	1199.1	1194	1188.8
x1 = 0.924	1204.1	–	1194.2	1189.2	1184.1	1179	1173.8
x1 = 0.9493	1182.3	1177.3	1172.3	1167.3	–	1157.1	1151.9
x1 = 1	1129.2	1124.3	1119.3	–	–	–	–
x2 = 0.0151	–	1141.6	1136.6	1131.6	–	1121.4	1116.2

O=C1CCCO1 + FC(S(=O)(=O)[N-]S(=O)(=O)C(F)(F)F)(F)F.C(CCC)N1C(=[N+](C=C1)C)C
Details	mass density [kg/m3]
293.15 K, x1 = 1	1129.5

CCCCn1cc[n+](C)c1.FC(F)(F)C(F)(F)[P-](F)(F)(F)(C(F)(F)C(F)(F)F)C(F)(F)C(F)(F)F + CN(C)C=O
mass density [kg/m3]
Details	293.15 K	298.15 K	303.15 K	308.15 K	313.15 K	318.15 K	323.15 K
x1 = 0.0182	1000.5	995.5	990.6	985.6	980.5	975.3	970
x2 = 0.1054	–	1605.2	1599.3	1593.6	–	1581.9	1575.9
x2 = 0.1501	1602	–	1590.5	–	1578.8	1573	–
x2 = 0.2076	1589.6	–	–	1572.2	1566.4	–	1554.6
x2 = 0.244	–	–	1569.8	–	1558.1	1552.3	1546.4
x2 = 0.3073	1565.4	1559.6	1553.8	1548	1542.2	1536.3	1530.5
x2 = 0.403	1536.9	1531.1	1525.3	1519.5	1513.7	1507.8	–
x2 = 0.4976	1502.4	1496.7	1490.9	1485	–	1473.3	1467.4
x2 = 0.5984	1455	1449.3	1443.6	1437.7	1431.9	1426	–
x2 = 0.6983	–	1386.9	–	1375.5	1369.7	1363.9	–
x2 = 0.799	1304.8	1299.2	1293.6	–	1282.3	1276.6	1270.8
x2 = 0.9002	–	1166.3	–	1155.5	–	1144.5	1139
x2 = 0.9336	1111.3	1106.1	1100.9	1095.6	1090.3	1084.9	1079.4
